PubChem BioAssay AID1347417 (National Center for Advancing Translational Sciences (NCATS), 2020)
In all, about 120,000 compounds went through this assay and about 5,300 (4.4%) were called active. The shares of active, inactive and inconclusive entries below differ from those in the screen. The call rests on the fitted dose curve; in most records, active means well fitted inhibition curve with a large enough effect; inconclusive means small, poorly fitted or top-dose-only effect; inactive means no such curve, though single readings can be large or run the other way. Potencies beside an inconclusive call are fits to weak or partial responses and may not hold up.

Test: qHTS Primary assay for Inhibitors of Plasmodium falciparum Dd2 growth in vitro; further: nearly all actives have a fitted effect of over 65% in size;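 on activity, negative = inhibition: plate controls were DMSO vehicle for no effect and reference drug for full effect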
Conditions: P. falciparum Dd2 growth, SYBR Green, 72 h; activity, negative = inhibition: at 28.9 µM (top of the series) unless noted; series mostly up to 28.9 µM
Procedure, shortened: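 Infected erythrocytes (Dd2, 0.3% parasitemia, 2.5% hematocrit final) are added to compound in RPMI-1640/Albumax II medium, grown 72 h at 37C in low oxygen, then lysed with saponin/Triton-X containing SYBR Green and read by fluorescence.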
Potency means the concentration at half of the fitted maximal effect; tags describe the fitted curve by direction and shape.

Row | Compound | Potency | activity, negative = inhibition | outcome
1 | COc1cccc(-c2nc(SC(C(C)=O)C(=O)N(C)C)c3c(=O)n(C)c(=O)n(C)c3n2)c1 (configuration not stated) | inconclusive: 7.08 µM [inhibitor, partial curve] |  | 
2 | CCOC(=O)C1=C(CNCc2ccccc2)NC(=O)NC1c1ccc(C)cc1 (configuration not stated) | active: 10 µM |  | 
3 | O=C(OCc1ccccc1)N1CCn2ncc(C(=O)N3CCOCC3)c2C1 |  | inactive: 9.9% | 
4 | COC(=O)c1ccc(NC(=O)N2CCC3(CC2)CC(N2CCCC2)CCO3)cc1 (configuration not stated) | inconclusive: 3.98 µM [inhibitor, partial curve, poor fit] |  | 
5 | Cc1cc(N2CCN(C)CC2)nc2ccc(NC(=O)Nc3ccccc3Cl)cc12 | active: 3.16 µM |  | 
6 | O=C(COc1ccc(F)cc1)N1CCC(CCOc2ccccc2F)C1 (configuration not stated) |  |  | inactive
7 | COc1ccc(CC(=O)N2CCC3(CC2)CC(O)CCO3)cc1 (configuration not stated) | inconclusive: 3.16 µM [inhibitor, partial curve, poor fit] |  | 
8 | c1ccc(-c2ccnc(NCCOc3cccc4cccnc34)n2)nc1 | inconclusive: 20 µM [inhibitor, single point] |  | 
9 | COc1ccc(C(C(=O)NCc2ccccc2)N(C(=O)Cn2nnc3ccccc32)c2ccc(OC)cc2)cc1 (configuration not stated) | inconclusive: 17.8 µM [inhibitor, single point] |  | 
10 | O=C(C1CC(=O)N(c2ccc(F)c(Cl)c2)C1)N1CCc2c(nc[nH]c2=O)C1 (configuration not stated) |  | inactive: 1.75% | 
11 | CC(C)NC(=O)C1(c2ccc(NC(=O)C(C)C)cc2)CCCCC1 |  | inactive: 5.43% | 
12 | Cc1ccc(NC(=O)CC2CCCN(c3cnn(CC4CC4)c(=O)c3)C2)c(C)c1 (configuration not stated) | inconclusive: 17.8 µM [inhibitor, single point] |  | 
13 | COc1ccc(CNS(=O)(=O)c2ccc3c(c2)C(C)(C)C(=O)N3C)cc1OC |  | inactive: 61.4% | 
14 | CCOc1cc(-c2nc3ccc(-c4ccc(OC)c(OC)c4OC)cc3o2)ccc1OC | inconclusive: 2.24 µM [inhibitor, single point] |  | 
15 | Cc1ccc(NC(=O)C2CCN(C(=O)c3ncn4c3COC(c3ccc(F)cc3)C4)CC2)c(Cl)c1 (configuration not stated) | inconclusive: 11.2 µM [inhibitor, single point] |  | 
16 | COc1cccc(Nc2cccc(CN3CCCC(C)(NC(C)=O)C3)c2)c1 (configuration not stated) | inconclusive: 8.91 µM [inhibitor, single point] |  | 
17 | Nc1ncccc1CN1CCCC12CCN(c1ccc(C(F)(F)F)cn1)CC2 | inconclusive: 8.91 µM [inhibitor, partial curve] |  | 
18 | CN(C)c1ccc(CN2CCC3(C2)C(=NC2CCCCC2)NC(=O)N3c2cccnc2)cc1 (configuration not stated) | inconclusive: 0.891 µM [inhibitor, full curve, poor fit] |  | 
19 | Cc1ccc(C)c(NS(=O)(=O)c2ccc3c(c2)CCCN3C(=O)C2CCC2)c1 |  | inactive: -12.8% | 
20 | COCc1nncn1C1CCN(C(=O)c2ccc(F)cc2F)CC1 |  |  | inactive
21 | COc1cccc(N2CCN(c3nc(C(=O)NCc4ccccc4F)cs3)CC2)c1 | inconclusive: 10 µM [inhibitor, single point] |  | 
22 | Cc1ncccc1OC1(C(=O)O)CCN(C(=O)C2CC=CCC2)CC1 (configuration not stated) |  | inactive: -6.3% | 
23 | O=C(Cc1cccc(Cl)c1)N1C[C@@H](CO)[C@H](c2ccncc2)C1 | inconclusive: 17.8 µM [inhibitor, partial curve, poor fit] |  | 

Row | Compound | Potency | activity, negative = inhibition | outcome
24 | COc1ccccc1-c1cn2c(n1)CO[C@@H](CNC(=O)c1ccc(Cl)cc1)C2 | inconclusive: 35.5 µM [inhibitor, single point] |  | 
25 | Cc1ccc(C(=O)NC2CCN(c3cc(C(F)(F)F)ncn3)CC2)cc1 | inconclusive: 8.91 µM [inhibitor, single point] |  | 
26 | Cc1ccc(S(=O)(=O)N2CCC(n3cnnc3C)CC2)c(C)c1 | inconclusive: 20 µM [inhibitor, single point] |  | 
27 | COCCN1CCC(CN(CC2CCCO2)C(=O)c2cccc(C#CC(C)(C)O)c2)CC1 (configuration not stated) | inconclusive: 20 µM [inhibitor, single point] |  | 
28 | COCCN1C(=O)c2ccccc2C(C(=O)Nc2cccc(OC)c2)C12CCCC2 (configuration not stated) | inconclusive: 11.2 µM [inhibitor, single point] |  | 
29 | O=c1c2nc(NCCOc3ccccc3)ccc2ncn1Cc1ccccc1 | inconclusive: 17.8 µM [inhibitor, single point] |  | 
30 | COc1ccc(OC)c(CCNc2ncnc3onc(C)c23)c1 | inconclusive: 14.1 µM [inhibitor, partial curve, poor fit] |  | 
31 | CCn1c(CN2CCC(C)CC2)nc2cc(NC(=O)c3cccc([N+](=O)[O-])c3)ccc21 | active: 6.31 µM |  | 
32 | CO[C@H]1[C@H](NC(=O)c2cn(C)c3ccccc23)c2ccccc2C12CCNCC2 |  | inactive: -20.9% | 
33 | O=C(NCc1ccncc1)[C@@H]1C[C@@H](c2ccc(F)cc2)N(CCOc2ccccc2)C1 | inconclusive: 5.01 µM [inhibitor, full curve, poor fit] |  | 
34 | O=C(c1ccccc1C(F)(F)F)N1CCC2(CC1)CC(O)CCO2 (configuration not stated) |  | inactive: 8.91% | 
35 | COc1cccc(N2C(=O)NC(=NC3CCCC3)C23CCN([S+](=O)([O-])c2ccccc2)C3)c1 (configuration not stated) |  | inactive: 10.4% | 
36 | CN(C)c1ccc(C(=O)N2CCC(Cc3noc(-c4ccccc4)n3)C2)cc1 (configuration not stated) | inconclusive: 12.6 µM [inhibitor, single point] |  | 
37 | CCC(=O)N(C1CCOCC1)C1CCN(S(=O)(=O)c2cccc(C)c2)CC1 | inconclusive: 10 µM [inhibitor, single point] |  | 
38 | CCNC(=O)N1CCC2(CC1)CC(N(C)Cc1ccccc1)CCO2 (configuration not stated) |  | inactive: -7.96% | 
39 | CC(=O)Nc1ccc(CN2CC(Oc3ccc(F)c(C)c3)C2)cc1 | inconclusive: 1.12 µM [inhibitor, full curve, poor fit] |  | 
40 | Cc1nnc(N2CCC(C(=O)NCc3cccc(Cl)c3)CC2)c2nn(-c3ccccc3)c(C)c12 |  | inactive: -1.39% | 
41 | CCc1ccccc1N1CC(c2nc3ccccc3n2CCC2CCCCC2)CC1=O (configuration not stated) | inconclusive: 7.94 µM [inhibitor, partial curve, poor fit] |  | 
42 | CCOc1cc(=O)n2c(c1C(=O)Nc1cc(Cl)c(OC)cc1OC)CCCC2 |  | inactive: -24.4% | 
43 | CC(C)c1ccc(NC(=O)CSC2=Nc3ccccc3C3=NC(CC(=O)NCc4ccco4)C(=O)N23)cc1 (configuration not stated) | inconclusive: 10 µM [inhibitor, single point] |  | 
44 | CN(Cc1cnccn1)C(=O)c1csc2nc(-c3cccc(C(F)(F)F)c3)cn12 |  |  | inactive
45 | COC1C(=O)N(c2cccc(F)c2)C12CCN(C(=O)c1ccncc1)CC2 (configuration not stated) | inconclusive: 4.47 µM [inhibitor, partial curve] |  | 
46 | CCCOc1ccccc1C(=O)Nc1nc2c(s1)CCCC2 | inconclusive: 17.8 µM [inhibitor, single point] |  | 

Row | Compound | Potency | activity, negative = inhibition | outcome
47 | CN(Cc1ccccc1)C(=O)c1ccc2c(c1)N(Cc1ccc(Cl)cc1)C(=O)c1ccccc1S2=O (configuration not stated) | inconclusive: 14.1 µM [inhibitor, single point] |  | 
48 | CCC(=O)N1CC(c2nnc(-c3ccc(C)cc3)o2)C2(CCOCC2)C1 (configuration not stated) |  | inactive: -16.5% | 
49 | Cc1ccc(C2=NC3(CCN(C(=O)c4cccc(F)c4)CC3)ON2)cc1 | inconclusive: 3.98 µM [inhibitor, single point] |  | 
50 | NC(=O)CNC(=O)C1=C[C@@H](NC(=O)Nc2cccc(F)c2)[C@@H](O)[C@H](O)C1 |  | inactive: 0.583% [at 44.1 µM] | 
51 | O=C(C[C@@H]1CCNC[C@@H]1Cc1cc(CSc2ccccc2)on1)N1CCN(c2ccccc2)CC1 | inconclusive: 1.41 µM [inhibitor, full curve] |  | 
52 | COc1ccc(NC(=O)N2CCCC(Cc3noc(-c4cnccn4)n3)C2)cc1 (configuration not stated) | inconclusive: 7.08 µM [inhibitor, partial curve, poor fit] |  | 
53 | CC(C)CNC(=O)c1cc(-c2ccccc2F)cc2c1OCCN2Cc1cccnc1 | inconclusive: 2.82 µM [inhibitor, partial curve, poor fit] |  | 
54 | COc1ccc(C(=O)Nc2ccc3c(c2)N(C)C(=O)c2ccccc2S3)cc1OC | inconclusive: 10 µM [inhibitor, single point] |  | 
55 | C=Cc1cccc(CN2CCC(CNS(=O)(=O)C3CC3)C2)c1 (configuration not stated) | inconclusive: 12.6 µM [inhibitor, partial curve, poor fit] |  | 
56 | CCOC(=O)c1cnc2c(C)cc(C)cc2c1Nc1ccc(N2CCOCC2)cc1 | inconclusive: 3.98 µM [inhibitor, single point] |  | 
57 | COc1cc(OC)c(NC(=O)C(C)n2nc(-c3ccc(C)c(C)c3)ccc2=O)cc1Cl (configuration not stated) | inconclusive: 6.31 µM [inhibitor, partial curve, poor fit] |  | 
58 | CCOc1ccc(-c2cc3c(=O)n(CCNC(=O)Cc4ccccc4C)ccn3n2)cc1 | inconclusive: 0.708 µM [inhibitor, full curve, poor fit] |  | 
59 | C#C[C@H]1CN2CC[C@H]1C[C@@H]2CNC(=O)COC |  | inactive: -13.3% [at 44.1 µM] | 
60 | N#Cc1ccccc1S(=O)(=O)N[C@H]1CO[C@H]2[C@@H]1OC[C@@H]2n1nnnc1-c1ccc2c(c1)OCO2 |  | inactive: -14.7% | 
61 | COc1cccc(NC(=O)N[C@H]2[C@H](O)[C@@H](N3CCN(c4ccccc4)CC3)[C@@H]3OC[C@H]2O3)c1 | inconclusive: 11.2 µM [inhibitor, partial curve, poor fit] |  | 
62 | FC(F)(F)c1cccc(CN2CCOC[C@H](Oc3ccccc3)C2)c1 |  |  | inactive [at 44.1 µM]
63 | CCCc1cc(C(=O)N(C)CCOc2ccccc2CC)n(C)n1 |  | inactive: -24.6% | 
64 | CN(C)c1ccc(-c2nc3ccccn3c2Nc2ccc3c(c2)OCCO3)cc1 | active: 10 µM |  | 
65 | CC(C)(O)CCc1ccc(CN2CCN([C@H]3CCCC[C@@H]3O)CC2)cc1 |  | inactive: -6.35% | 
66 | CCOc1ccc(NC(=O)Cn2nc3n(c2=O)CCCC3)cc1 |  |  | inactive
67 | CCC1=C(c2ccc(C)cc2)S(=O)(=O)N=C1N1CCC(C(=O)NCCc2cccc(OC)c2)CC1 | active: 7.94 µM |  | 
